# Assay results published in PubChem BioAssay AID1645882 (National Center for Advancing Translational Sciences (NCATS), 2021).
# In all, about 16,000 compounds went through this assay and about 120 (0.75%) were called active. Another 4% or so got no clear call; they are omitted. Calls follow the shape of the dose curve; as a rule, active = well fitted inhibition curve with a large enough effect; inconclusive = small, poorly fitted or top-dose-only effect; inactive = no such curve, though single readings can be large or run the other way. The list shows a part of the results.
# Biological target: Rap guanine nucleotide exchange factor 3 (Homo sapiens) (UniProt O95398)
# UniProt O95398, sequence (O95398 whole entry, looked up): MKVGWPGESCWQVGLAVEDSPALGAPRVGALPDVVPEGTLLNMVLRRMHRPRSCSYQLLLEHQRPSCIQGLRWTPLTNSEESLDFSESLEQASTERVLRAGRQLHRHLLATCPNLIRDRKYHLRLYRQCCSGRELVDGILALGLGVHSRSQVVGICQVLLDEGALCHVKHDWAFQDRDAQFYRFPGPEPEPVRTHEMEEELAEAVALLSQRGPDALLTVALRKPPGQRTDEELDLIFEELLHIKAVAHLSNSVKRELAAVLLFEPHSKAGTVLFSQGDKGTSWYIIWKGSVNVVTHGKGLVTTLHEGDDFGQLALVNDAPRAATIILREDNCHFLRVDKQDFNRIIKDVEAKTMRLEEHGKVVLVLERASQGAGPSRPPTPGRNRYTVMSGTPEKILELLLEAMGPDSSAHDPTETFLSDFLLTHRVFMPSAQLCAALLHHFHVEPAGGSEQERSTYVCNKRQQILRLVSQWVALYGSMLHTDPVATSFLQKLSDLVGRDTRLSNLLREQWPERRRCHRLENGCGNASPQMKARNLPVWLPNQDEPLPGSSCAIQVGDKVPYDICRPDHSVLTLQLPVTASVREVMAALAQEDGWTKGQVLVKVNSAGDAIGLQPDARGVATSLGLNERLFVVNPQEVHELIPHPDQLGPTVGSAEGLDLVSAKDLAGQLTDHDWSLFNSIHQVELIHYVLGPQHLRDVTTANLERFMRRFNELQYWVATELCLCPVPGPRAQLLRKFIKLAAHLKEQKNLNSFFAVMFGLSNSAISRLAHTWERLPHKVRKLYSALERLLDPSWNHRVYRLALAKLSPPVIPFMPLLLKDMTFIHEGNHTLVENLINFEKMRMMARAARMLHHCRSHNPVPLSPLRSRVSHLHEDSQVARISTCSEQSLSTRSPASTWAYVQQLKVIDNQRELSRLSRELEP
# Test: Validation qHTS for antagonist of cAMP-regulated guanine nucleotide exchange factor 3 (EPAC1);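 also: plate controls were DMSO for no effect and ATA control for full effect; nearly all actives have a fitted effect of over 75% in size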
# Settings: EPAC1 Rap1B-BODIPY-GDP exchange, fluorescence; activity change, negative = inhibition: at the top concentration
# In short: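 Nucleotide exchange followed as fluorescence loss when BODIPY-GDP leaves Rap1B (480 nm excitation, 540 nm emission), read at 5 min intervals over 30 min. Reaction: 100 nM EPAC1, 250 nM RAP1B-BODIPY-GDP, 50 uM GDP; ATA and DMSO define normalization.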
row,SMILES,"activity change, negative = inhibition"
1,O=C(Nc1ccccc1-c1ccc(Cl)cc1)c1cccnc1Cl,inactive: 9.77% [at 320 µM]
2,CNCC/C=C\c1cccnc1,inactive: 5.38%
3,CCc1c(C(=O)OC)ncc2[nH]c3cc(OC)c(OC)cc3c12,inactive: -16%
4,O[C@@H]1CCCN2C[C@@H](O)[C@@H](O)C12 (stereo partly drawn),inactive: 19.9% [at 320 µM]
5,O=C1Nc2ccc(Cl)cc2C(c2ccccc2)=NC1O (stereo not drawn),inactive
6,COc1ccc2c(c1)[C@@]13CCCCC1[C@@H](C2)N(C)CC3 (stereo partly drawn),inactive: -1.88%
7,CC(N)c1cccc(Cl)c1Cl (stereo not drawn),inactive: -5.25% [at 75.8 µM]
8,C=CCN1CCC2(C)c3cc(O)ccc3CC1[C@@H]2C (stereo partly drawn),inactive: 24.7%
9,CC(C)(O)[C@@H]1C2OC(=O)[C@@H]1[C@]1(O)C[C@H]3O[C@]34C(=O)O[C@H]2[C@]14C,inactive: 14.6%
10,Cc1noc(C)c1C(=O)N1CCC[C@@]2(CCN(CC(C)C)C2)C1,inactive: 29.2%
11,NC(=NCc1ccc(Cl)cc1)SCCCc1cnc[nH]1,inactive: 2.99%
12,c1csc(CN2CC3(CCNCC3)C2)n1,inactive: 23.8%
13,COc1ccc2c3c1O[C@H]1C(=O)CC[C@H]4[C@@H](C2)N(C)CC[C@]314,inactive: 6.64%
14,C=C[C@H]1CN2CC[C@H]1C[C@H]2c1[nH]c2ccccc2c1CCO,inactive: -4.7%
15,C#CCN(C)[C@H](C)Cc1ccccc1,inactive
16,O=C(Nc1ccc(Br)cc1)c1cc(Br)cc(Br)c1O,inactive: 24.3%
17,COc1cc(C[C@H](C)N)c(OC)cc1C,inactive: 28.4% [at 320 µM]
18,c1ccc(CCN2CCCCC2)cc1,inactive: 22.4%
19,NCCc1ccccc1,inactive: 15.9%
20,C[C@@H]1O[C@@H](O[C@@H]2C=C3CC[C@@H]4[C@H](CC[C@]5(C)[C@@H](c6ccc(=O)oc6)CC[C@]45O)[C@@]3(C)CC2)[C@H](O)[C@H](O)[C@H]1O,inactive: 15.2% [at 75.8 µM]
21,NC(Cc1ccc(N(CCCl)CCCl)cc1)C(=O)O (stereo not drawn),inactive
22,C/C=C1/CN2CC[C@]34C(=C(C=O)[C@H]1C[C@@H]23)Nc1ccccc14,inactive: 9.85%
23,CC1(C)C(C(Cl)Cl)C2(Cl)C(Cl)C(Cl)C1(Cl)C2(Cl)Cl (stereo not drawn),inactive: 11.7%
24,CCN(CC)CCOC(=O)C(O)(c1ccccc1)c1ccccc1,inactive: 22.8%

row,SMILES,"activity change, negative = inhibition"
1,N[C@H](CCP(=O)(O)O)C(=O)O,inactive
2,CC(C)(C)OC(=O)c1ncn2c1[C@@H]1CCCN1C(=O)c1c(Br)cccc1-2,inactive: -4.47%
3,OC(c1ccccc1)(c1ccccc1)C1CN2CCC1CC2 (stereo not drawn),inactive: 20.2%
4,C=C1C2C[C@]3(C4CC5[C@@]6(C)CC[C@H](O)[C@@]5(C3CC2=O)C4[N+]([O-])(CC)C6)[C@@H]1O (stereo partly drawn),inactive: 2.39%
5,COc1ccc2[nH]c3c(c2c1)CCNC3C (stereo not drawn),inactive: -1.64%
6,COc1ccc(C(CN(C)C)C2(O)CCCCC2)cc1 (stereo not drawn),inactive
7,CCCSc1cc(OC)c(CCN)cc1OC,inactive: 27.2% [at 320 µM]
8,CN1CC[C@@]2(CCCN(C(=O)c3csnn3)C2)C1,inactive: 11.4%
9,CCN(CCCl)Cc1ccccc1Br,inactive: -4.09% [at 75.8 µM]
10,C[N+]1(C)[C@@H]2CC[C@H]1CC(OC(=O)c1c[nH]c3ccccc13)C2 (stereo partly drawn),inactive: -1.58%
11,Cc1o[nH]c(=O)c1CC(N)C(=O)O (stereo not drawn),inactive: 0.255% [at 75.8 µM]
12,CC1(C)C(=O)[C@@H]2OC2[C@@]2(C)C1CC(O)[C@]1(C)C2CC[C@@]2(C)C(c3ccoc3)OC(=O)C3OC312 (stereo partly drawn),inactive: 7.42%
13,CC1=C(O)C(=O)[C@H]2O[C@@H]2C1=O,inactive: 14.5%
14,O=C(c1csnn1)N1CCC[C@@]2(CCN(Cc3ccncc3)C2)C1,inactive: 22.1%
15,CCNCC(O)c1cccc(O)c1 (stereo not drawn),inactive: 16.2% [at 75.8 µM]
16,O=C(CS(=O)C(c1ccccc1)c1ccccc1)NO (stereo not drawn),inactive: -9.05%
17,CN1CCc2cc3c(cc2C1O)OCO3 (stereo not drawn),inactive: 6.56%
18,CP(=O)(O)CCCN,inactive
19,COc1cc2c(cc1O)-c1c(O)c(OC)cc3c1[C@H](C2)N(C)CC3,inactive: -6.09%
20,CC(n1cc(C[C@H](N)C(=O)O)c2ccccc21)n1cc(C[C@H](N)C(=O)O)c2ccccc21,inactive: 5.04%
21,COC1=CC23CCCN2CCc2cc4c(cc2C3C1O)OCO4 (stereo not drawn),inactive: -8.2%
22,O=C(C[C@@H]1NCCC[C@H]1O)Cn1cnc2cc(Br)c(Cl)cc2c1=O,inactive: 22.7%
23,NP(N)(=O)NC(=O)c1ccc(F)cc1,inactive: 15.2%
24,CC[n+]1c(-c2ccccc2)c2cc(N)ccc2c2ccc(N)cc21,inactive

row,SMILES,"activity change, negative = inhibition"
1,N[C@H](CP(=O)(O)O)C(=O)O,inactive: 5.73%
2,C[C@]12CC[C@H]3[C@@H](C[C@H](F)C4=CC(=O)CC[C@@]43C)[C@@H]1CC[C@@H]2O,inactive: 14.7%
3,Oc1ccc2c3c1O[C@H]1c4oc5ccccc5c4C[C@@]4(O)C(C2)N(CC2CC2)CCC314 (stereo partly drawn),inactive: 12.8% [at 75.8 µM]
4,CCCCC1C(=O)NC(=O)N(C2CCCCC2)C1=O (stereo not drawn),inactive: 32.4%
5,COc1ccc(C(=O)O)cc1OC,inactive: 6.46%
6,COc1ccc2[nH]cc(C3=CCNCC3)c2c1,inactive
7,NCC(=O)c1ccccc1,inactive: 21.2%
8,Clc1ccc(C(Cn2ccnc2)OCc2csc3c(Cl)cccc23)c(Cl)c1 (stereo not drawn),inactive: 3.84% [at 75.8 µM]
9,CCOC(=O)c1ncn2c1CN(C)C(=O)c1c(I)cccc1-2,inactive: 57.8%
10,O=C(Nc1ccccc1)N1CC[C@@]2(CCCN(C(=O)Oc3ccccc3)C2)C1,inactive: 4.63%
11,O=C(O)Cc1ccccc1,inactive: 21.4%
12,ClC(Cl)(Cl)Cl,inactive: 26%
13,Clc1cccc(SC2CCNCC2)n1,inactive
14,CCNC(=O)[C@@H]1O[C@@H](n2cnc3c(N)ncnc32)[C@H](O)[C@H]1O,inactive: 11.7%
15,O=C(O)[C@H]1[C@H]2CN[C@H](C(=O)O)[C@H]21,inactive
16,COc1ccc(C(=O)c2c(C)n(CCN3CCOCC3)c3ccccc23)cc1,inactive: 5.32%
17,CNC(=O)OCC[N+](C)(C)C,inactive: -1.8%
18,CN1C(=O)[C@@H](NC(=O)c2cc3ccccc3[nH]2)N=C(c2ccccc2)c2ccccc21,inactive: -10.7%
19,c1cc2c(c(N3CCNCC3)c1)OCCO2,inactive: 22.4%
20,CCS(=O)(=O)C(C)(C)S(=O)(=O)CC,inactive: 9.32%
21,CC[C@H]1C2CC3[C@@H]4N(C)c5ccccc5[C@]45C[C@@H](C2[C@H]5O)N3[C@@H]1O (stereo partly drawn),inactive: 9.98%
22,c1ccc(CCCN2CCN(CCOC(c3ccccc3)c3ccccc3)CC2)cc1,inactive
23,C[C@@H](C(=O)OC1C[C@H]2CC[C@@H](C1)N2C)c1ccc(Br)cc1 (stereo partly drawn),inactive: -1.09%
24,CN1CCCC2(CCN(C(=O)Oc3ccccc3)CC2)C1,inactive: 11%

row,SMILES,"activity change, negative = inhibition"
1,CN(C)CCc1c[nH]c2cccc(OP(=O)(O)O)c12,inactive: 26.3% [at 320 µM]
2,O=C(O)/C=C\C(=O)O,inactive: 26.9%
3,c1ccc(N2CC3(CCNCC3)C2)nc1,inactive: 14.5%
4,CCS(=O)CCSP(=O)(OC)OC (stereo not drawn),inactive: 9.03%
5,CCCn1c(C)c(C(=O)c2ccc3ccccc3c2)c2ccccc21,inactive: 0.954% [at 75.8 µM]
6,C[C@]12CCC(=O)C=C1CC[C@@H]1[C@@H]2CC[C@@]2(C)[C@H]1CC[C@]2(C)O,inactive
7,CC(C)NCC(O)c1ccc(N)c(C#N)c1 (stereo not drawn),inactive
8,C[C@H]1CC[C@@H]2N(C1)C[C@H]1[C@@H]3C[C@H]4[C@@H](CC(=O)[C@H]5C[C@@H](O)CC[C@@]54C)[C@@H]3CC[C@H]1[C@]2(C)O,inactive: 9.57%
9,CCC(OC(C)=O)C(CC(C)NC)(c1ccccc1)c1ccccc1 (stereo not drawn),inactive: -0.531% [at 320 µM]
10,CNCC(O)c1ccc(O)cc1 (stereo not drawn),inactive
11,CC(=O)C1CC[C@H]2C3CC[C@@H]4CC(O)CC[C@@]4(C)C3CC[C@]12C (stereo partly drawn),inactive: -6.27%
12,c1ccc(N2CCCC3(CCNCC3)C2)cc1,inactive: 19.3%
13,O=C(Cc1ccc(Cl)c(Cl)c1)N1CCCCC1CN1CCCC1 (stereo not drawn),inactive
14,S=C=S,inactive: 20.5%
15,C#CCOC(=O)C1=CCCN(C)C1,inactive
16,CNC(C)CC1CCCCC1 (stereo not drawn),inactive: 12.3%
17,CO[C@@H]1C[C@@H](C[C@H]2CC[C@H](C)[C@@H]([C@@H](C)C(=O)O)O2)O[C@]2(O[C@](C)([C@H]3CC[C@@](C)(C4OC([C@H]5O[C@@](O)(CO)[C@H](C)C[C@@H]5C)C[C@@H]4C)O3)C[C@H]2C)[C@@H]1C (stereo partly drawn),inactive: 42.7%
18,COCC(=O)N(c1c(C)cccc1C)C(C)C(=O)OC (stereo not drawn),inactive: 20.9%
19,O=C(Nc1cccc(F)c1)N1CCCC2(CCN(C(=O)Oc3ccccc3)CC2)C1,inactive: -12.6%
20,c1ccc(CCN2CCCC2)cc1,inactive: 19.5%
21,O=C(O)CCCOc1ccc(Cl)cc1Cl,inactive
22,CC(N)(COP(=O)(O)Oc1ccccc1)C(=O)O (stereo not drawn),inactive: 29.5%
23,O=C(NC(=O)c1ccccc1Cl)Nc1ccc(OC(F)(F)F)cc1,inactive: -1.72%
24,NCC(CP(=O)(O)O)c1ccc(Cl)cc1 (stereo not drawn),inactive

row,SMILES,"activity change, negative = inhibition"
1,N[C@@H](Cn1cc(I)c(=O)[nH]c1=O)C(=O)O,inactive: -6.86%
2,c1cnc(N2CCCC3(CCNCC3)C2)nc1,inactive: 9.73%
3,CCC(CO)NC(=O)C1C=C2c3cccc4[nH]cc(c34)CC2N(C)C1 (stereo not drawn),inactive: -17.3%
4,CCCN1CCc2cccc3c2C1Cc1ccc(O)c(O)c1-3 (stereo not drawn),inactive: 26.9%
5,CCCC(=O)OCC[N+](C)(C)C,inactive: 20.2%
6,c1ccc(C2CC2)c(OCC2=NCCN2)c1,inactive
7,CN1Cc2c(ccc3c2OCO3)C2C(O)Cc3cc4c(cc3C21)OCO4 (stereo not drawn),inactive
8,CN1C2CC3CC1C(O3)C2O (stereo not drawn),inactive: -4.51%
9,CC[C@H]1C[C@@H]2C[C@H]3c4[nH]c5ccc(OC)cc5c4CCN(C2)[C@@H]13,inactive: 24.3% [at 320 µM]
10,C[C@]12CCC(=O)C(O)=C1CC[C@@H]1[C@@H]2CC[C@]2(C)C(=O)CC[C@@H]12,inactive: 19.9%
11,ClCCN(CCCl)/C(=C\c1ccccc1)c1ccnc2ccccc12,inactive: 23.4%
12,C[C@]12CCC3C(CC[C@]4(O)CC(O)CC[C@@]34C=O)[C@]1(O)CCC2C1=CC(=O)OC1 (stereo partly drawn),inactive: 8.1%
13,OC(O)C(Cl)(Cl)Cl,inactive: 15.2%
14,CNC(C)(C)Cc1ccccc1,inactive
15,CCOP(=S)(OCC)Oc1cc(C)nc(C(C)C)n1,inactive: 17.8%
16,CNC(Cc1c[nH]c2ccccc12)C(=O)O (stereo not drawn),inactive: 16.2%
17,CN1C(=O)CN=C(c2ccccc2)c2cc([N+](=O)[O-])ccc21,inactive: -5%
18,CC(=O)[C@H]1CC[C@H]2[C@@H]3CC[C@@H]4C[C@H](O)CC[C@]4(C)[C@H]3CC[C@]12C,inactive: -2.52%
19,CCC1C2CC3C4N(C)c5ccccc5[C@]45CC(C2C5O)N3C1O (stereo partly drawn),inactive: 9.23%
20,CCCN1CCc2cc(O)cc3c2[C@H]1Cc1ccc(O)c(O)c1-3,inactive: -11% [at 75.8 µM]
21,OC[C@@H](O)[C@H]1O[C@@H]2O[C@H](C(Cl)(Cl)Cl)O[C@@H]2[C@H]1O,inactive: 13.5%
22,O=C(O)CCC1NCC2CC1CN1CCCCC21 (stereo not drawn),inactive: 0.0753%
